From PubChem BioAssay AID1508624 (National Center for Advancing Translational Sciences (NCATS), 2021) come the findings set out here.

The campaign covered roughly 48,000 compounds. About 120 (0.25%) were called active. Inconclusive results (about 4%) are left out. Calls come from the whole dose curve; as a rule, active = well fitted activation curve with a large enough effect; inconclusive = small, poorly fitted or top-dose-only effect, or another doubt; inactive = no such curve, though single readings can be large or run the other way. The list shows a part of the results.

A short description of the test: Primary qHTS for Identification of Small Molecule Activators of Huntingtin-Antisense Promoter Activity. Note: nearly all actives have a fitted effect of over 55% in size. The settings on record: HEK293 HTT-AS promoter firefly luciferase reporter (activity 0% = vehicle and -100% = no light), 24 h; series mostly up to 57.5 µM; activity change, positive = activation: at the top concentration. The essentials: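 Quantitative HTS used concentration series of up to 57.5 uM final on HEK293 luciferase reporter cells, 24 h at 37 degrees C. Readout was Dual-Glo firefly luminescence.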
In general terms: qHTS replaces the single test concentration by a dilution series.
For `O=C(Cn1c(SCCOc2ccccc2Cl)nc2ccccc21)N1CCCCC1`, the “activity change, positive = activation” value is inactive: -20.4%.

As for `CCCc1cc(=O)[nH]c(SCc2nc(-c3ccc(OC)cc3)no2)n1`, the “activity change, positive = activation” value was inactive: -12.9%.

Take `Cc1cn([C@H]2C[C@H](N=[N+]=[N-])[C@@H](CO)O2)c(=O)[nH]c1=O`: the activity change, positive = activation entry was “inactive”.

As to `COc1ccc(CC(=O)NCCc2csc(-c3cccc(F)c3)n2)cc1OC`, the “activity change, positive = activation” value was inactive: -16.8%.

Turning to `N#Cc1ccccc1Cn1c(=O)n(-c2ccc(F)c(Cl)c2)c(=O)c2sccc21`, the “activity change, positive = activation” value was inactive: -25.4%.

Consider `Cc1ccc(C)c(NC(=O)Cn2c(=O)n(Cc3ccco3)c(=O)c3ccc(C(=O)NC4CCCC4)cc32)c1`, for which the “activity change, positive = activation” value was inactive: -29%.

As for `O=C(C1CCN(c2ncnc3c2nc2n3CCCCC2)CC1)N1CCN(c2ccccc2)CC1`, the “activity change, positive = activation” value was inactive: -32.2%.

For the molecule `CCOC(=O)c1ccccc1NC(=O)c1sc2ncn(CC)c(=O)c2c1C`, the “activity change, positive = activation” value is inactive: -8.7%.

Take `COc1cccc(-c2nc(CS(=O)(=O)CC(=O)NCCCc3ccccc3)c(C)o2)c1`: the “activity change, positive = activation” value is inactive: -15.1%.

On to `Cc1ccc(S(=O)(=O)N2CCCc3cc(NC(=O)c4ccc(C(C)(C)C)cc4)ccc32)cc1`, for which the “activity change, positive = activation” value is inactive: -17%.

Regarding `CCN(CC)c1ccc(NC(=O)c2sc3nc(-c4ccccc4)cn3c2C)cc1`, the “activity change, positive = activation” value was inactive: -18.5%.

Consider `Cc1nc(-c2ccc(F)cc2)sc1CCNC(=O)C(=O)Nc1ccc2c(c1)OCO2`, for which the “activity change, positive = activation” value was inactive: -9.26%.

For the molecule `CCOC(=O)c1cccc(NC(=O)NCc2ccc3c(c2)CCN3C(=O)CC)c1`, the “activity change, positive = activation” value was inactive: -8.28%.

Take `CCCn1c2ccccc2c2cnn(CC(=O)NCCc3cc(OC)ccc3OC)c(=O)c21`: the “activity change, positive = activation” value is inactive: 1.68%.

On to `COc1ccc(N2CCN(C(=O)c3nn(C)c4c3CSc3ccccc3-4)CC2)cc1`, for which the “activity change, positive = activation” value is inactive: -9.71%.

Consider `CCc1ccc(C(=O)c2cn(CC(=O)Nc3ccc(OC)c(Cl)c3)c3nc(C)ccc3c2=O)cc1`, for which the “activity change, positive = activation” value was inactive: -9.02%.

Regarding `CCCN(C(=O)NCc1noc2ccc(C)cc12)c1ccc(Cl)c(Cl)c1`, the “activity change, positive = activation” value was inactive: -10%.

Turning to `CC1=C(C(=O)Nc2cccc(C(F)(F)F)c2)C(c2ccccn2)n2ncnc2N1` (stereo not drawn), the “activity change, positive = activation” value is inactive: -11.2%.

In the case of `CCC(=O)Nc1ccccc1-c1nc2ccccc2n(CC(=O)c2ccc(Br)cc2)c1=O`, the “activity change, positive = activation” value was inactive: -12.6%.

`Cc1ccc(Cl)cc1NC(=O)Cn1cc(S(=O)(=O)Cc2ccccc2Cl)c2ccccc21`: the “activity change, positive = activation” value is inactive: -22.5%.

On to `COc1cccc(CN2CCc3nc(N4CCN(C)CC4)ncc3C2)c1`, for which the “activity change, positive = activation” value is inactive: -14.2%.

In the case of `CCCNC(C)C(=O)Nc1c(C)csc1C(=O)OC` (stereo not drawn), the “activity change, positive = activation” value is inactive: -6.91%.

In the case of `CCOc1ccc(CCNC(=O)Cc2ccc(NC(=O)N3CCSc4ncccc43)cc2)cc1`, the “activity change, positive = activation” value is inactive: -21.8%.

Regarding `COc1ccc(-n2nc(C(=O)N3CCN(c4cccc(C(F)(F)F)c4)CC3)c3c4ccccc4n(C)c3c2=O)cc1Cl`, the “activity change, positive = activation” value was inactive: -6.02%.

As to `COc1cccc(N2CCN(C(=O)Cn3ncc4c5ccccc5n(C)c4c3=O)CC2)c1`, the “activity change, positive = activation” value is inactive: -4.78%.

Regarding `Cc1cccc(-c2noc(-c3cc(-c4ccc(F)cc4)n[nH]3)n2)c1`, the “activity change, positive = activation” value is inactive: -10.5%.

Regarding `Cc1oc2ncn(C)c(=O)c2c1C(=O)NCc1ccccc1`, the “activity change, positive = activation” value was inactive: -8.73%.

For the molecule `CNCc1ccc(-c2[nH]c3cc(F)cc4c3c2CCNC4=O)cc1`, the “activity change, positive = activation” value was inactive: -6.36%.

In the case of `COc1cc(OC)cc(C(=O)Nc2nc(-c3nnn(-c4ccc(F)c(Cl)c4)c3C)ns2)c1`, the “activity change, positive = activation” value is inactive: -48.1%.

As for `O=C(CSc1nc(O)c(C/C=C/c2ccccc2)c(=O)[nH]1)Nc1cccc(F)c1`, the “activity change, positive = activation” value was inactive: -13%.

In the case of `CC(C)(C)c1ccc(S(=O)(=O)N2CCN(C(=O)c3cc(-c4ccc(Br)cc4)n[nH]3)CC2)cc1`, the “activity change, positive = activation” value was inactive: 1.54%.

With `O=C(NCc1ccc(Cl)cc1)C1CCN(S(=O)(=O)c2ccc3c(c2)CCCN3C(=O)C2CCC2)CC1`, the “activity change, positive = activation” value was inactive: 0%.

Take `CCOc1ccc(NC(=O)c2noc3c2CSc2ccccc2-3)cc1`: the “activity change, positive = activation” value is inactive: 14.8%.

With `CCOCCc1nn2c(=O)cc(COC(=O)c3ccco3)nc2s1`, the “activity change, positive = activation” value is inactive: -8.08%.

On to `COc1cc(-c2noc(-c3ccc(N4CCCCC4)c([N+](=O)[O-])c3)n2)cc(OC)c1OC`, for which the “activity change, positive = activation” value is inactive: -6.96%.

On to `COc1cccc(CNC(=O)c2nnc(Cc3ccc(Cl)cc3)o2)c1`, for which the “activity change, positive = activation” value is inactive: -8.91%.

As to `CCN1CCN(CCCNC(=O)c2ccc3c(c2)sc2nc(-c4ccc(C)cc4)cn23)CC1`, the “activity change, positive = activation” value was inactive: -17.9%.

With `O=C(CSc1ccc(-c2cccs2)nn1)Nc1cccc(F)c1`, the “activity change, positive = activation” value was inactive: -27.7%.

`COc1ccccc1N1CCN(c2ncnc3onc(C)c23)CC1`: the “activity change, positive = activation” value was inactive: -25.7%.

`COc1ccc(-c2cc(C)no2)cc1S(=O)(=O)N1CC(C)Oc2ccccc21` (stereo not drawn): the “activity change, positive = activation” value was inactive: -29.8%.

As for `COc1ccc(-n2c(SCC(=O)NCc3ccccc3)nc3n[nH]c(C)c3c2=N)cc1`, the “activity change, positive = activation” value was inactive: -30.7%.

`CCCn1c(=O)c2sccc2n2c(CCCC(=O)Nc3ccccc3F)nnc12`: the “activity change, positive = activation” value is inactive: 2.87%.

`CN(C(=O)c1oc(=O)c2ccccc2c1-c1ccccc1)c1cccc(Cl)c1`: the “activity change, positive = activation” value is inactive: -34.1%.

Turning to `COc1cccc(N2CCN(C(=O)Cn3ncc4c(=O)oc5ccccc5c43)CC2)c1`, the “activity change, positive = activation” value is inactive: 3.43%.

Take `O=C1CC(c2cccc(F)c2)c2c(n3ncnc3[nH]c2=O)N1` (stereo not drawn): the “activity change, positive = activation” value was inactive: -6.42%.

On to `CCOC(=O)Cn1c(=O)n(C2CCCCC2)c2nc(-c3cccc(C)c3)nc(C(N)=O)c21`, for which the “activity change, positive = activation” value is inactive: -16.1%.

Regarding `Cc1ccc(N2CCN(C(=O)c3c(C)oc4nc(C)nc(N5CCCC5)c34)CC2)c(C)c1`, the “activity change, positive = activation” value is inactive: -30%.

As for `COc1cccc(N(C)C(=S)Oc2ccc3c(c2)CCCC3)n1`, the activity change, positive = activation entry is “inactive”.
